# Measured values taken from PubChem BioAssay AID504832 (National Center for Advancing Translational Sciences (NCATS), 2011).
# Several values for one entry are separate records, joined by “and”; a condition that tells them apart may be missing. Equal entries are not always repeated. About 18,000 (5.8%) of roughly 310,000 compounds were called active. Inconclusive results, whose numbers are uncertain, are shown with a selection of clear calls. Calls follow the shape of the dose curve; as a rule, active = well fitted inhibition curve with a large enough effect; inconclusive = small, poorly fitted or top-dose-only effect, or another doubt; inactive = no such curve, though single readings can be large or run the other way. Where the call is inconclusive, the potency comes from a doubtful curve fit.
# Test: Primary qHTS for delayed death inhibitors of the malarial parasite plastid, 48 hour incubation
# Details: P. falciparum luciferase growth in erythrocytes; series mostly up to 28.7 µM; activity change, negative = inhibition: at the top concentration
# Outline: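 Compounds are pin-transferred into medium, infected erythrocytes (2% hematocrit, 0.1% parasitemia final) are added, and plates sit one parasite generation at 37 C in 5% CO2. Detection reagent is then added and luminescence measured.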
# % is scaled to controls: 0 for no effect and ±100 for the full control effect; potency is read from the fitted curve at half-maximal effect; tags tell the direction and shape of the fitted curve.
Compound,"activity change, negative = inhibition",Potency
N#CCc1nc2n(n1)Cc1ccccc1-2,inactive: -18.5%,–
O=C(O)c1ccc(-c2ccc(/C=C3\NC(=O)N(Cc4ccc(Cl)cc4)C3=O)o2)cc1,–,"inconclusive: 4.65 µM [inhibitor, partial curve, poor fit]"
Cn1cc(CN2CCCC(CO)(Cc3cccc(Cl)c3)C2)cn1 (stereo not drawn),–,"inconclusive: 0.185 µM [inhibitor, partial curve, poor fit]"
CNC(=O)c1cc(Oc2ccc(NC(=O)Nc3ccc(Cl)c(C(F)(F)F)c3)cc2)ccn1,–,"inconclusive: 19 µM [inhibitor, single point] and inconclusive: 9.28 µM [inhibitor, single point]"
O=S(=O)(c1ccccc1)c1nc(-c2ccco2)oc1NCc1cccnc1,–,"inconclusive: 14.7 µM [inhibitor, single point]"
CCOC(=O)C1(Cc2cccc(OC)c2)CCN(CC2CC=CCC2)CC1 (stereo not drawn),–,"inconclusive: 11.7 µM [inhibitor, single point]"
CCC(=O)Nc1ccc(/C=C(\C(C)=O)C(=O)c2ccccc2)cc1,–,"inconclusive: 18.5 µM [inhibitor, single point]"
Cc1ccc2cc(CN(Cc3ccco3)C(=O)C3CCCCC3)c(=O)[nH]c2c1C,–,"inconclusive: 1.85 µM [inhibitor, partial curve, poor fit]"
CSc1sc(C)cc1C1C(C#N)=C(N)N(c2cccnc2)C2=C1C(=O)CC(C)(C)C2 (stereo not drawn),–,"inconclusive: 8.28 µM [inhibitor, partial curve]"
FC(F)(F)c1nc2ccccc2nc1N/N=C\c1ccccc1,inactive: 10.3%,–
O=C(NC1CCN(C(=O)Nc2cccc(Cl)c2)CC1)C1CCCCC1,inactive: -13.1%,–
CCOc1ccccc1NS(=O)(=O)c1cc2c3c(c1)CC(=O)N3CCC2,–,"inconclusive: 9.28 µM [inhibitor, partial curve]"
COc1ccc(N2C(=O)C(C)(C)C2c2c(O)ccc3ccccc23)cc1 (stereo not drawn),–,active: 8.28 µM
O=C(NCc1ccccc1)C1=C[C@@H](c2ccc(Br)cc2)C[C@@H](OCc2ccc(CO)cc2)O1,–,"inconclusive: 3.7 µM [inhibitor, full curve, poor fit]"
COc1cc(C(=O)NCc2cccnc2)ccc1OCC(=O)Nc1cccc(C(F)(F)F)c1,inactive: -2.53%,–
CC1(C)CC(=O)c2cnc(N3CCN(c4ccccc4)CC3)nc2C1,inactive: -7.31%,–
COc1ccccc1NC(=O)Nc1cc(C(C)C)ccc1C,–,"inconclusive: 11.7 µM [inhibitor, partial curve]"
O=C(NCC(c1cccnc1)N1CCN(c2ccc(F)cc2)CC1)C1CCCCC1 (stereo not drawn),–,"inconclusive: 13.1 µM [inhibitor, single point]"
CCCCn1c(SCC(=O)Nc2cc(C)[nH]n2)nc2ccsc2c1=O,inactive: 12%,–
CCN(CC)CCN(C(=O)c1ccc2c(c1)CCCC2)c1nc2ccc(C)cc2s1,–,active: 13.1 µM
O=C(c1cccc(S(=O)(=O)N2CCN(c3ccccc3)CC2)c1)N1CCN(c2ccccc2O)CC1,–,active: 10.4 µM
COCCn1c(-c2cccc([N+](=O)[O-])c2)nc2c1c(=O)[nH]c(=O)n2Cc1ccccc1,–,"inconclusive: 10.4 µM [inhibitor, single point]"

Compound,"activity change, negative = inhibition",Potency
CCOC(=O)CCNC(=O)Nc1ccc2nc(C)n(Cc3cccc(Cl)c3)c(=O)c2c1,–,"inconclusive: 18.5 µM [inhibitor, single point]"
O=C(NCC1CCCO1)c1ccc2c(=O)n(CC3CCCO3)c(SCC(=O)N3CCCC3)nc2c1 (stereo not drawn),–,"inconclusive: 2.94 µM [inhibitor, partial curve]"
COCCSc1nnc(NC(=O)C2CC(=O)N(CCc3ccc(F)cc3)C2)s1 (stereo not drawn),–,"inconclusive: 16.5 µM [inhibitor, single point]"
O=C1CCCN1CCCNS(=O)(=O)c1ccc(F)cc1F,inactive: 7.05%,–
COc1ccc(-c2nc3ccccc3c(=O)n2CCc2ccc(O)cc2)cc1,–,"inconclusive: 18.5 µM [inhibitor, single point]"
CS(=O)(=O)c1ccccc1-c1nnc(NC(=O)Cc2ccccc2)o1,inactive: 0.486%,–
CC(NC(=O)c1ccccc1)c1ccc(F)cc1 (stereo not drawn),inactive: -7.25%,–
COc1ccccc1-c1cc(C(=O)Nc2sc3c(c2C#N)CCC(C)C3)c2ccccc2n1 (stereo not drawn),inactive: -1.29%,–
O=C(Cc1ccccc1F)Nc1cc(S(=O)(=O)N2CCOCC2)ccc1N1CCOCC1,–,"inconclusive: 5.86 µM [inhibitor, partial curve]"
COC(=O)c1cc(NS(=O)(=O)c2ccc(N3CCOCC3)c(NC(C)=O)c2)cc(C(=O)OC)c1,inactive: 1.62%,–
CCOC(=O)c1sc2ncnc(N3CCN(c4ccc(OC)cc4)CC3)c2c1C,–,"inconclusive: 0.522 µM [inhibitor, full curve, poor fit]"
CCc1cc(=O)oc2c3c(cc(OCC(=O)NCCN4CCOCC4)c12)OC(C)(C)CC3,–,"inconclusive: 18.5 µM [inhibitor, single point]"
CCOc1ccc(C2/C(=C(\O)c3ccc4c(c3)OCCO4)C(=O)C(=O)N2Cc2cccnc2)cc1OCC (stereo not drawn),–,"inconclusive: 18.5 µM [inhibitor, single point]"
COc1cc(-c2nc3oc4ccccc4c(=O)c3c(=O)n2Cc2ccco2)cc(OC)c1OC,–,"inconclusive: 0.233 µM [inhibitor, full curve]"
CC(Nc1nc2ncn(Cc3ccccc3)c2c(=O)[nH]1)C(=O)O (stereo not drawn),–,"inconclusive: 0.415 µM [inhibitor, partial curve, poor fit]"
O=C(CCc1ccccc1)NC(=S)Nc1cc(C(F)(F)F)ccc1N1CCOCC1,–,"inconclusive: 8.28 µM [inhibitor, partial curve, poor fit]"
CCc1ccc(NC(=O)NCC2CCN(c3ccc(OC)cc3)C2)cc1 (stereo not drawn),–,"inconclusive: 10.4 µM [inhibitor, partial curve]"
CN(CCOc1ccc(Cl)c(Cl)c1)Cc1ccccc1,inactive: 7.13%,–
Cc1ccc(C)c(S(=O)(=O)N2CCN(C(=O)C3CCN(c4ncnc5sc(C)c(C)c45)CC3)CC2)c1,–,active: 5.22 µM
COc1cccc(Oc2ccc(N)cn2)c1,inactive: 35.7%,–
Cc1ccc2c(c1)sc1nc(=O)n(-c3ccc(Cl)c(Cl)c3)c(=O)n12,–,"inconclusive: 8.28 µM [inhibitor, partial curve, poor fit]"
